According to paper PMC6919601, “Identification of Plasmodium dipeptidyl aminopeptidase allosteric inhibitors by high throughput screening” (PLoS ONE, 2019):
The whole screen tested about 110,000 compounds, of which about 230 (0.21%) showed an effect of 50% or more. The list shows a part of the results.

biological target: DPAP1 (Plasmodium falciparum, UniProt Q8IIJ9); test: primary screen, percent inhibition; read by cleavage of a fluorogenic dipeptide substrate; higher = more effect of the substance; parameters: species or system P. falciparum D10 trophozoite lysates; single well
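Note: 30 min substrate incubation versus DMSO and 10 µM JCP410 controls.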

Sequence of DPAP1 (Q8IIJ9 whole entry, looked up): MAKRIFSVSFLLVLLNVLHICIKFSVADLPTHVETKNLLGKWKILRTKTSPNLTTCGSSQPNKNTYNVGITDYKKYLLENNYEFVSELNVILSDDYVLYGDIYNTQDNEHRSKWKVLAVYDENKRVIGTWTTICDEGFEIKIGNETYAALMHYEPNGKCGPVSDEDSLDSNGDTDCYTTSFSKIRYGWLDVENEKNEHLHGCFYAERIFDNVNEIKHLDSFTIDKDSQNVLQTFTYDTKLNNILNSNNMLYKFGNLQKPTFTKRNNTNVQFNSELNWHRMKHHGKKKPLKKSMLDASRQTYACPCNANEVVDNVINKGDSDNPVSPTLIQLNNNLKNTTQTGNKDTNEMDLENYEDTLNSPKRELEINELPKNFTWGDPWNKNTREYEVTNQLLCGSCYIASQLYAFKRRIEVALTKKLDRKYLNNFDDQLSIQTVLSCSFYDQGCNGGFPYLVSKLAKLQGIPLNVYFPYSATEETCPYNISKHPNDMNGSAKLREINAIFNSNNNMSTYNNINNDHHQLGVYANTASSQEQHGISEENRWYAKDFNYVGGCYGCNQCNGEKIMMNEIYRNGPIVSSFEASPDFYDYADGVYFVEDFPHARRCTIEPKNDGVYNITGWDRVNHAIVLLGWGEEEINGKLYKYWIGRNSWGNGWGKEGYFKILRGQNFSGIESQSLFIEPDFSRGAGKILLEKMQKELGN

Structure (SMILES)	% Inhibition @ 10 uM
NC(=O)c1ccccc1NC(=O)COc1ccc2ccccc2c1Br	4.65%
Cc1ccc(C)c(Cn2c(C)c(CNCCc3ccc(Cl)cc3)c(C(=O)O)c2C)c1	-1.92%
N#CC1=C(N)SC(N)=C(C#N)C1c1ccc(Cl)cc1	50.8%
O=C1CC(NC2=NCCCCC2)=NN1c1ccccc1	0.964%
COc1ccc(OC)c(C2c3cc(OC)c(OC)cc3CCN2C)c1 (stereo not shown)	0.774%
CN1CCN(C(=O)Nc2cccc(Cl)c2)CC1	-5.61%
CCOC(=O)c1c(C)nc2c(c1-c1ccc(OC)c(OC)c1)C(=O)c1ccccc1-2	-5.11%
O=C(CCn1ccc2cc(S(=O)(=O)N3CCCCCC3)ccc21)N1CCC2(CC1)OCCO2	5.77%
N=c1c(S(=O)(=O)c2ccccc2)cc2c(=O)n3ccccc3nc2n1Cc1ccco1	6.64%
COc1cccc(NC(=O)c2cnn(-c3ccccc3)c2C)c1	2.64%
COC(=O)c1sccc1NC(=O)NCc1noc2ccc(C)cc12	3.25%
CC(=O)c1cccc(NC(=O)CCCOc2ccc(Cl)cc2C)c1	-0.641%
Cn1c(=O)c2c(nc(N3CCOCC3)n2CC(=O)c2ccccc2)n(C)c1=O	2.44%
COc1cccc(-c2nc(CS(=O)(=O)CC(=O)NC3CCCCCC3)c(C)o2)c1	-0.138%
CC1=C(C(=O)OCC(F)(F)C(F)(F)F)C(c2ccc3c(c2)OCO3)NC(=O)N1 (stereo not shown)	-4.77%
COc1ccccc1N1CCN(C(=O)Nc2cccc3ccccc23)CC1	0.35%
CCc1cccc2c(O)c(C(=O)O)cnc12	-3.2%
CCC(C)NC(=O)NCc1noc2ccc(C)cc12 (stereo not shown)	-10%
O=C(CCCN1C(=O)c2ccccc2C1=O)NC1CCCCC1	1.7%
COc1cc(OC)c(CN2CCCC3CCCCC32)cc1Br (stereo not shown)	-2.95%
Cc1n[nH]c(C)c1S(=O)(=O)N1CCc2ccccc2C1	-2.17%
Cc1nn(-c2ccccc2)c(O)c1C(=O)c1ccc(Cl)cc1	3.61%
CC/N=c1\c(NC(=O)c2cc(OC)cc(OC)c2)c(O)oc2ccccc12	2.94%
CCc1ccc2ncc(S(=O)(=O)c3ccc(Cl)cc3)c(N3CCN(C)CC3)c2c1	-11.7%
CCN1CCN(Cc2cccs2)CC1	1.28%

Structure (SMILES)	% Inhibition @ 10 uM
CCN1CCN(c2c(S(=O)(=O)c3ccc(Cl)cc3)cnc3cc(OC)c(OC)cc23)CC1	-8.93%
Cc1ccc(C(C#N)NC(=O)[C@H](CC(C)C)NC(=O)c2ccccc2)o1 (stereo partly shown)	-6.46%
O=C(CCC(=O)n1ncc2ccc(Cl)cc21)N1CCCCCC1	2.25%
COc1cc2oc3ccccc3c2cc1N(CC(=O)N(C)C)S(=O)(=O)c1ccc(C)cc1	3.57%
O=C(CC1(O)C(=O)N(CN2CCOCC2)c2ccccc21)c1ccccc1 (stereo not shown)	3.65%
Cc1ccc(NC(=O)c2cc3cc(Br)ccc3oc2=O)cc1	4.6%
CC(=O)Nc1ccc2c(c1)C(=O)N(c1ccc(C(=O)O)cc1)C2=O	1.9%
CS(=O)(=O)N(CC(=O)NCc1ccccc1Cl)c1ccc(F)cc1	-0.564%
CC(C)Cc1ccc2c(N)c(C(=O)c3ccccc3)sc2n1	0.219%
CCC(=O)NCCc1nc2ccccc2n1Cc1ccccc1	-4.49%
O=C(CSc1nc2c(c(=O)n1Cc1ccccc1)SCC2)NCCc1ccccc1	-2.26%
O=[N+]([O-])c1ccc(/C=C/c2ccc3ccccc3n2)s1	10.8%
O=C(Nc1nccs1)c1cc2c(Cl)nc3ccccc3c2s1	0.232%
Cc1cccc(NC(=O)CN2C(=O)S/C(=C/c3cccc(F)c3)C2=O)c1	-1.79%
Cn1nc(C(F)(F)F)cc1C(=O)Nc1ccc(S(=O)(=O)NC23CC4CC(CC(C4)C2)C3)cc1	2.69%
OCCNc1ncnc2sc3c(c12)CCCC3	-2.62%
Cc1oc2c(c1C(=O)NCCC1=CCCCC1)C(=O)c1ccccc1C2=O	-5.41%
Cc1ccc(S(=O)(=O)NCCCCCc2nc3ccccc3[nH]2)cc1	-3.48%
Cc1c(O)ccc(-c2[nH]ncc2-c2nc3ccccc3s2)c1O	-10.8%
CN(CCc1ccccn1)Cc1ccc2c(c1)OCO2	3.73%
CCN(CC)/C(=N\OC(=O)c1ccc(C)cc1)c1nonc1N	-1.84%
Cc1ccccc1CCNCc1c(C(=O)O)n(C)c2ccccc12	-1.6%
O=C(NCCN1CCOCC1)c1ccc2c(c1)ncn2C1CCCC1	2.05%
O=C(NCc1cccnc1)c1ccc(CSc2nc3ccncc3n2Cc2cccc(F)c2)cc1	2.65%
